In patent US20250313546A1, “NUCLEIC ACID BINDERS” (UNIVERSITY OF STRATHCLYDE, priority 2022, published 2025):
Values after ≈ are worked out from the molar mass of the structure shown.

How the values were obtained:
[1] = system: A. fumigatus TR34/L98H (F10017, an azole resistant strain); conditions: Aspergillus fumigatus, read-out: MIC99 A. fumigatus TR34/L98H
Method: The Minimum Inhibitory Concentration (MIC, at 99% inhibition) of the compounds was determined using the broth microdilution method as recommended by EUCAST (EUCAST Definitive Document E.DEF 9.3.2, Method for the determination of broth dilution minimum inhibitory concentrations of antifungal agents for conidia forming moulds and EUCAST Definitive Document E.DEF 7.3.2 Method for the determination of broth dilution minimum inhibitory concentrations of antifungal agents for yeasts).

[2] = system: T. b. brucei Lister S427 (a drug-sensitive wild type); experiment: Resazurin-based (Alamar blue) drug sensitivity assay; conditions: for T.b. brucei Selectivity Indices (SI, IC50 (μM)/IC50 (μM)) Group / T.b. brucei Selectivity Index (SI, IC50 (μM)/IC50 (μM)), numeric value: cytotoxicity against HEK293 cells vs T.b. brucei; for IC50: Trypanosoma brucei, read-out: IC50 T.b. brucei
[3] = system: T. congolense IL3000 (a drug sensitive wild type); experiment: as above; conditions: Trypanosoma congolense, read-out: IC50 T. congo

SMILES | MIC99 [1] | T.b. brucei Selectivity Indices (SI, IC50 (μM)/IC50 (μM)) Group ([2]; Alkyl Amidines and NH Pyrroles) | IC50 [2] | T.b. brucei Selectivity Index (SI, IC50 (μM)/IC50 (μM)), numeric value [2] | IC50 [3] | T.b. brucei Selectivity Indices (SI, IC50 (μM)/IC50 (μM)) Group ([2]; Quaternary ammoniums)
Cn1cc(NC(=O)c2cc(NC(=O)c3ccc(/C=C/c4cnc5ccccc5c4)cc3)cn2C)cc1C(=O)NCCC(=N)N1CCSCC1 [Ib7, (E)-N-(3-imino-3-thiomorpholinopropyl)-1-methyl-4-(1-methyl-4-(4-(2-(quinolin-3-yl)vinyl)benzamido)-1H-pyrrole-2-carboxamido)-1H-pyrrole-2-carboxamide] | 5 to 25 µg/mL (≈ 7.41 to 37 µM) | D (Group D: SI > 300) | 50 to 250 nM | 332 | 50 to 250 nM | 
C/N=C(/CCNC(=O)c1cc(NC(=O)c2cc(NC(=O)c3ccc(/C=C/c4ccc5nonc5c4)cc3)cn2C)cn1C)NC [Ia6, 4-(4-((E)-2-(benzo[c][1,2,5]oxadiazol-5-yl)vinyl)benzamido)-1-methyl-N-(1-methyl-5-(((Z)-3-(methylamino)-3-(methylimino)propyl)carbamoyl)-1H-pyrrol-3-yl)-1H-pyrrole-2-carboxamide] | < 5 µg/mL |  | 50 to 250 nM |  | < 50 nM | 
[H]/N=C(\CCNC(=O)c1cc(NC(=O)c2cc(NC(=O)c3ccc(C=Cc4ccc5nonc5c4)cc3)cn2C)cn1C)N1CCSCC1 [Ib8, (E)-4-(4-(2-(benzo[c][1,2,5]oxadiazol-5-yl)vinyl)benzamido)-N-(5-((3-imino-3-thiomorpholinopropyl)carbamoyl)-1-methyl-1H-pyrrol-3-yl)-1-methyl-1H-pyrrole-2-carboxamide] | 5 to 25 µg/mL (≈ 7.51 to 37.5 µM) |  | < 50 nM |  | 50 to 250 nM | 
CC/N=C(\N)CCNC(=O)c1cc(NC(=O)c2cc(NC(=O)c3ccc(/C=C/c4cnc5ccccc5c4)cc3)cn2C)cn1C [Ia14, N—((Z)-3-amino-3-(ethylimino)propyl)-1-methyl-4-(1-methyl-4-(4-((E)-2-(quinolin-3-yl)vinyl)benzamido)-1H-pyrrole-2-carboxamido)-1H-pyrrole-2-carboxamide] | 25 to 50 µg/mL (≈ 40.5 to 81.1 µM) | D (Group D: SI > 300) | < 50 nM | 863 | 50 to 250 nM | 
Cn1cc(NC(=O)c2cc(NC(=O)c3ccc(/C=C/c4cnc5ccccc5c4)cc3)cn2C)cc1C(=O)NCCC(=N)N1CCCCC1 [Ib1, (E)-N-(3-imino-3-(piperidin-1-yl)propyl)-1-methyl-4-(1-methyl-4-(4-(2-(quinolin-3-yl)vinyl)benzamido)-1H-pyrrole-2-carboxamido)-1H-pyrrole-2-carboxamide] | 5 to 25 µg/mL (≈ 7.61 to 38.1 µM) | B (Group B: 70 < SI <= 150) | < 50 nM |  | < 50 nM | 
Cn1cc(NC(=O)c2cc(NC(=O)c3ccc(/C=C/c4cnc5ccccc5c4)cc3)cn2C)cc1C(=O)NCCC(=N)N1CCOCC1 [Ib5, (E)-N-(3-imino-3-morpholinopropyl)-1-methyl-4-(1-methyl-4-(4-(2-(quinolin-3-yl)vinyl)benzamido)-1H-pyrrole-2-carboxamido)-1H-pyrrole-2-carboxamide] | 5 to 25 µg/mL (≈ 7.59 to 37.9 µM) | D (Group D: SI > 300) | 50 to 250 nM | 346 | 50 to 250 nM | 
COCCOCC[N+](C)(C)CCNC(=O)c1cc(NC(=O)c2cc(NC(=O)c3ccc(/C=C/c4cnc5ccccc5c4)cc3)cn2C)cn1C [Ic18, (E)-2-(2-methoxyethoxy)-N,N-dimethyl-N-(2-(1-methyl-4-(1-methyl-4-(4-(2-(quinolin-3-yl)vinyl)benzamido)-1H-pyrrole-2-carboxamido)-1H-pyrrole-2-carboxamido)ethyl)ethan-1-aminium] | 25 to 50 µg/mL |  | 50 to 250 nM |  | 50 to 250 nM | B (Group B: 40 < SI <= 80)
[H]/N=C(\CCNC(=O)c1cc(NC(=O)c2cc(NC(=O)c3ccc(C=Cc4ccc(N(C)C)cc4)nc3)cn2C)cn1C)NC [Ia9, (E)-6-(4-(dimethylamino)styryl)-N-(5-((5-((3-imino-3-(methylamino)propyl)carbamoyl)-1-methyl-1H-pyrrol-3-yl)carbamoyl)-1-methyl-1H-pyrrol-3-yl)nicotinamide] | 5 to 25 µg/mL (≈ 8.39 to 42 µM) |  | 250 to 1000 nM |  | 250 to 1000 nM | 
CCCCNC(=N)CCNC(=O)c1cc(NC(=O)c2cc(NC(=O)c3ccc(/C=C/c4cnc5ccccc5c4)cc3)cn2C)cn1C [Ia34, (E)-N-(3-(butylamino)-3-iminopropyl)-1-methyl-4-(1-methyl-4-(4-(2-(quinolin-3-yl)vinyl)benzamido)-1H-pyrrole-2-carboxamido)-1H-pyrrole-2-carboxamide] | 25 to 50 µg/mL (≈ 38.8 to 77.5 µM) | B (Group B: 70 < SI <= 150) | 50 to 250 nM | 130 | 50 to 250 nM | 
[H]/N=C(\CCNC(=O)c1cc(NC(=O)c2cc(NC(=O)c3ccc(C=Cc4ccc5nonc5c4)cc3)cn2C)cn1C)N1CCOCC1 [Ib6, (E)-4-(4-(2-(benzo[c][1,2,5]oxadiazol-5-yl)vinyl)benzamido)-N-(5-((3-imino-3-morpholinopropyl)carbamoyl)-1-methyl-1H-pyrrol-3-yl)-1-methyl-1H-pyrrole-2-carboxamide] | 25 to 50 µg/mL (≈ 38.5 to 77 µM) |  | > 1000 nM |  | 250 to 1000 nM | 
[H]/N=C(\CCNC(=O)c1cc(NC(=O)c2cc(NC(=O)c3ccc(C=Cc4ccc5nonc5c4)cc3)cn2C)cn1C)N1CCCCC1 [Ib2, (E)-4-(4-(2-(benzo[c][1,2,5]oxadiazol-5-yl)vinyl)benzamido)-N-(5-((3-imino-3-(piperidin-1-yl)propyl)carbamoyl)-1-methyl-1H-pyrrol-3-yl)-1-methyl-1H-pyrrole-2-carboxamide] | 5 to 25 µg/mL (≈ 7.72 to 38.6 µM) |  | < 50 nM |  | < 50 nM | 
CC(C)NC(=N)CCNC(=O)c1cc(NC(=O)c2cc(NC(=O)c3ccc(/C=C/c4cnc5ccccc5c4)cc3)cn2C)cn1C [Ia21, (E)-N-(3-imino-3-(isopropylamino)propyl)-1-methyl-4-(1-methyl-4-(4-(2-(quinolin-3-yl)vinyl)benzamido)-1H-pyrrole-2-carboxamido)-1H-pyrrole-2-carboxamide] | 5 to 25 µg/mL (≈ 7.93 to 39.6 µM) | D (Group D: SI > 300) | < 50 nM | 472 | 50 to 250 nM | 
CCCCCNC(=N)CCNC(=O)c1cc(NC(=O)c2cc(NC(=O)c3ccc(/C=C/c4cnc5ccccc5c4)cc3)cn2C)cn1C [Ia35, (E)-N-(3-imino-3-(pentylamino)propyl)-1-methyl-4-(1-methyl-4-(4-(2-(quinolin-3-yl)vinyl)benzamido)-1H-pyrrole-2-carboxamido)-1H-pyrrole-2-carboxamide] | > 50 µg/mL |  | 50 to 250 nM |  | 50 to 250 nM | 
CCNC(=N)CCNC(=O)c1cc(NC(=O)c2cc(NC(=O)c3ccc(/C=C/c4ccc(OC)cc4)nc3)cn2C)cn1C [Ia24, (E)-N-(5-((5-((3-(ethylamino)-3-iminopropyl)carbamoyl)-1-methyl-1H-pyrrol-3-yl)carbamoyl)-1-methyl-1H-pyrrol-3-yl)-6-(4-methoxystyryl)nicotinamide] | 25 to 50 µg/mL (≈ 41.9 to 83.8 µM) | B (Group B: 70 < SI <= 150) | 250 to 1000 nM |  | 50 to 250 nM | 
C/N=C(/CCNC(=O)c1cc(NC(=O)c2cc(NC(=O)c3ccc(/C=C/c4nc5ccccc5s4)cc3)cn2C)cn1C)NC [Ia11, 4-(4-((E)-2-(benzo[d]thiazol-2-yl)vinyl)benzamido)-1-methyl-N-(1-methyl-5-(((Z)-3-(methylamino)-3-(methylimino)propyl)carbamoyl)-1H-pyrrol-3-yl)-1H-pyrrole-2-carboxamide] | 5 to 25 µg/mL (≈ 8.03 to 40.1 µM) |  | 250 to 1000 nM |  | 50 to 250 nM | 
C/N=C(/CCNC(=O)c1cc(NC(=O)c2cc(NC(=O)c3ccc(/C=C/c4cnc5ccccc5c4)cc3)cn2C)cn1C)NC [Ia10, 1-methyl-4-(1-methyl-4-(4-((E)-2-(quinolin-3-yl)vinyl)benzamido)-1H-pyrrole-2-carboxamido)-N—((Z)-3-(methylamino)-3-(methylimino)propyl)-1H-pyrrole-2-carboxamide] | 5 to 25 µg/mL (≈ 8.11 to 40.5 µM) |  | 50 to 250 nM |  | < 50 nM | 
